Measured values as given in PMC12434519 (ACS Medicinal Chemistry Letters, 2025).
Where “and” joins values, the source holds several entries; their conditions need not be identical. Equal entries are not always repeated. Where two headings read alike, the source gives them in different places.

What was measured:
SARS-CoV-2 NSP14 [1] = target: T1, SARS-CoV-2 NSP14 (Severe acute respiratory syndrome coronavirus 2, UniProt P0DTD1); conditions: for TM Replicate 1 (ºC) (NSP14+SAH+cmpd): NSP14+SAH 47; for TM Replicate 1 (ºC) (NSP14+SAH+cmpd) / TM (ºC) (NSP14+compound): SBVS hits; for TM (ºC) (NSP14+compound): NSP14 alone 43; for ∆TM (°C) / Average Tm NSP14 (ºC) + compound + SAH: HTS hits; for Average Tm NSP14 (ºC) + compound + SAH: NSP14 + SAH 48.0
SARS-CoV-2 NSP14 [2] = target: T1, SARS-CoV-2 NSP14; test: biochemical; conditions: for NSP14 SARS COV2 : Hill slope: Sheet2
[3] = LUM % inhibition, read-out: SARS-CoV-2 NSP14 inhibition: IC50
[4] = LUM % inhibition, read-out: SARS-CoV-2 NSP14 inhibition: Maximum response
[5] = fit of concentration-response curve
[6] = n = 3, read-out: IC50 for the inhibition of SARS-CoV-2 NSP14 (95% CI)
[7] = Sheet1, NSP14+SAH+compound vs NSP14+SAH
[8] = 0.75 h, read-out: NSP14 SARS COV2 : Maximum measured (%)

Compound	TM of NSP14 + SAH + compound (ternary complex) (SARS-CoV-2 NSP14 [1]; DSF, NSP14 + SAH 47.3 °C, n = 3)	TM of NSP14 + compound (absence of SAH) (SARS-CoV-2 NSP14 [1]; DSF, NSP14 alone […], n = 3) [°C]	TM Replicate 1 (ºC) (NSP14+SAH+cmpd) (SARS-CoV-2 NSP14 [1])	TM (ºC) (NSP14+compound) (SARS-CoV-2 NSP14 [1])	IC50 (SARS-CoV-2 NSP14 [2]; [3]) [µM]	Emax (SARS-CoV-2 NSP14 [2]; [4]) [%]	SARS-CoV-2 NSP14 inhibition: Hill slope (SARS-CoV-2 NSP14 [2]; SBVS hits)	SARS-CoV-2 NSP14 inhibition: Hill slope (SARS-CoV-2 NSP14 [2]; [5])	IC50 (SARS-CoV-2 NSP14 [2]; [6])	∆TM (°C) (SARS-CoV-2 NSP14 [1]; [7])	∆TM (°C) (SARS-CoV-2 NSP14 [1]; Sheet2, compound + SAH vs SAH)	Average Tm NSP14 (ºC) + compound + SAH (SARS-CoV-2 NSP14 [1])	Emax (SARS-CoV-2 NSP14 [2]; [8]) [%]	NSP14 SARS COV2 : Hill slope (SARS-CoV-2 NSP14 [2]; HTS hits)	IC50 (SARS-CoV-2 NSP14 [2]; HTS hits, Suppl. Table 3 Sheet2, read-out: NSP14 SARS COV2 : IC50) [µM]	IC50 (SARS-CoV-2 NSP14 [2]; IC50 (µM), HTS hits, Suppl. Table 3 Sheet1) [µM]	IC50 (SARS-CoV-2 NSP14 [2]; HTS hits, Suppl. Table 3 Sheet1, read-out: IC50) [µM]
Cc1ccc(NC(=O)Cn2nnc3ccccc3c2=O)cc1S(=O)(=O)N1CCCCC1 [RU-0833928, S(=O)(=O)(N1CCCCC1)c1c(C)ccc(NC(=O)CN2N=Nc3c(cccc3)C2=O)c1]	48.3 ± 0.3 °C and 48.3 °C	42.7 ± 0.6	48 ºC	43 ºC	9.13	61.5	1.47	1.47	≤ 10 µM and 9.1 µM								
COc1ccc2oc(C)c(C(=O)Nc3ccc(S(=O)(=O)Nc4onc(C)c4C)cc3)c2c1 [RU-0357296, COC1=CC2=C(OC(C)=C2C(=O)NC2=CC=C(S(=O)(=O)NC3=C(C)C(C)=NO3)C=C2)C=C1]										6.0	6.0	54.0 ºC	101	0.746	0.402		
C[C@@H](NC(=O)c1ccc(CNC(=O)c2ccc3[nH]ncc3c2)cc1)c1cccc(O)c1 [RU-0834179, C[C@@H](NC(=O)C1=CC=C(CNC(=O)C2=CC=C3NN=CC3=C2)C=C1)C1=CC(O)=CC=C1]			48 ºC	43 ºC	5.82	90.9	1.08	1.08	5.8 µM								
O=S(=O)(c1cccc2nsnc12)N1CCc2ccccc2C1 [RU-0378384, O=S(=O)(N1CCC2=CC=CC=C2C1)C1=CC=CC2=NSN=C12]										1.0	1.0	49.0 ºC	86.5	0.656		9.19	
Cc1nc(C)c(C(=O)NCc2ccc(CNC(=O)c3ccc(O)c(F)c3)cc2)nc1C [RU-0834080, CC1=NC(C)=C(C)N=C1C(=O)NCC1=CC=C(CNC(=O)C2=CC(F)=C(O)C=C2)C=C1]			48.5 ºC	43 ºC	5.82	81.3	1.14	1.14	5.8 µM								
CC(=O)N1CCc2cc(S(=O)(=O)Nc3cccc(Cl)c3C)ccc21 [RU-0121476, S(NC1=C(C)C(Cl)=CC=C1)(C1=CC2=C(N(C(=O)C)CC2)C=C1)(=O)=O]										1.5	1.5	49.5 ºC	73.1	1.5			4.54
O=C(Cn1cccc(-c2nc(-c3ccccc3)no2)c1=O)Nc1ccc(F)cc1F [RU-0833868, Fc1c(NC(=O)CN2C=CC=C(c3nc(c4ccccc4)no3)C2=O)ccc(F)c1]			46.5 ºC	43 ºC	9.36	93.9	2.93	2.93	≤ 10 µM								
